Results taken from the supplement of paper PMC4604168 (melanoma cell lines).
Some of the results follow. Most values come without repeats; read them as rough.

System: G361
Test: cell count relative to DMSO control; melanoma cells; higher = more viable cells
Details: library dose: low library concentration; 72 h
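Note: cell number obtained by counting DAPI-stained nuclei in high-throughput microscope images with image analysis software, screen run in 1,536-well plates.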

Q: How did the cell count turn out when CC(=O)O[C@@]12CO[C@@H]1C[C@H](O)[C@@]1(C)C(=O)[C@H](O)C3=C(C)[C@@H](OC(=O)[C@H](O)[C@@H](NC(=O)OC(C)(C)C)c4ccccc4)C[C@@](O)([C@@H](OC(=O)c4ccccc4)[C@H]21)C3(C)C [Docetaxel] + O=S(=O)(c1ccccc1)N(CC(F)(F)F)c1ccc(C(O)(C(F)(F)F)C(F)(F)F)cc1 [T0901317] (first compound 0.0001 µM, partner dose 1.4 µM) was run?
A: 28.1%

Q: Nc1nc(F)nc2c1ncn2[C@@H]1O[C@H](CO)[C@@H](O)[C@@H]1O [fludarabine] + CCN(CC)CCCCNc1ncc2cc(-c3cc(OC)cc(OC)c3)c(NC(=O)NC(C)(C)C)nc2n1 [PD173074] (first compound 0.2 µM, partner dose 0.1 µM) was tested. Which cell count did it give?
A: 109%

Q: Which cell count does the source give for CC(=O)c1c(C)c2cnc(Nc3ccc(N4CCNCC4)cn3)nc2n(C2CCCC2)c1=O [palbociclib] + N#Cc1c(O)c2c(-c3ccc(-c4ccccc4O)cc3)csc2[nH]c1=O [A769662] (first compound 0.04 µM, partner dose 2 µM) here?
A: 83.9%

Q: With CC(=O)O[C@@]12CO[C@@H]1C[C@H](O)[C@@]1(C)C(=O)[C@H](O)C3=C(C)[C@@H](OC(=O)[C@H](O)[C@@H](NC(=O)OC(C)(C)C)c4ccccc4)C[C@@](O)([C@@H](OC(=O)c4ccccc4)[C@H]21)C3(C)C [Docetaxel] + Oc1cc(-c2nc(-c3ccccc3)[nH]c2-c2ccncc2)ccc1Cl [L779450] (first compound 0.0001 µM, partner dose 0.2 µM) as the compound, how does the cell count read?
A: 24.6%

Q: CC(=O)c1c(C)c2cnc(Nc3ccc(N4CCNCC4)cn3)nc2n(C2CCCC2)c1=O [palbociclib] + O=C(O)C(=O)Nc1sc2c(c1C(=O)O)CCNC2 [TCS401] (first compound 0.04 µM, partner dose 1.66667 µM) was tested. Which cell count did it give?
A: 75.1%

Q: For Nc1ncn([C@H]2C[C@H](O)[C@@H](CO)O2)c(=O)n1 [decitabine] + COc1cc(N2CCC(N3CCN(C)CC3)CC2)ccc1Nc1ncc(Cl)c(Nc2ccccc2S(=O)(=O)C(C)C)n1 [NVP-TAE684] (first compound 0.1 µM, partner dose 0.08 µM), which cell count is on record?
A: 94.7%

Q: For CC(=O)c1c(C)c2cnc(Nc3ccc(N4CCNCC4)cn3)nc2n(C2CCCC2)c1=O [palbociclib] + CCCCCCCCCCCC1=C(O)C(=O)C=C(O)C1=O [Embelin] (first compound 0.04 µM, partner dose 1.2 µM), which cell count is on record?
A: 69.6%

Q: CC(=O)O[C@@]12CO[C@@H]1C[C@H](O)[C@@]1(C)C(=O)[C@H](O)C3=C(C)[C@@H](OC(=O)[C@H](O)[C@@H](NC(=O)OC(C)(C)C)c4ccccc4)C[C@@](O)([C@@H](OC(=O)c4ccccc4)[C@H]21)C3(C)C [Docetaxel] + O=C1NC(=O)/C(=C/c2ccc(-c3ccc(F)cc3O)o2)S1 [AS252424] (first compound 0.0001 µM, partner dose 1 µM) was tested. Which cell count did it give?
A: 22.8%

Q: CC(=O)O[C@@]12CO[C@@H]1C[C@H](O)[C@@]1(C)C(=O)[C@H](O)C3=C(C)[C@@H](OC(=O)[C@H](O)[C@@H](NC(=O)OC(C)(C)C)c4ccccc4)C[C@@](O)([C@@H](OC(=O)c4ccccc4)[C@H]21)C3(C)C [Docetaxel] + O=c1cc(-c2cccc3c2Sc2ccccc2S3)oc(N2CCOCC2)c1 [KU55933] (first compound 0.0001 µM, partner dose 1 µM) was tested. Which cell count did it give?
A: 24.1%

Q: Which cell count does the source give for Nc1nc(F)nc2c1ncn2[C@@H]1O[C@H](CO)[C@@H](O)[C@@H]1O [fludarabine] + O=C(Nc1ccccc1)c1cc([N+](=O)[O-])ccc1Cl [GW9662] (first compound 0.2 µM, partner dose 2 µM) here?
A: 112%

Q: How did the cell count turn out when Nc1ncn([C@H]2C[C@H](O)[C@@H](CO)O2)c(=O)n1 [decitabine] + COc1ccc2c(c1)CCC1C2CCC2(C)C(NCCCCCCN3C(=O)C=CC3=O)CCC12 [U73122] (first compound 0.1 µM, partner dose 0.4 µM) was run?
A: 102%

Q: How did the cell count turn out when Nc1ccn([C@@H]2O[C@H](CO)[C@@H](O)C2(F)F)c(=O)n1 [gemcitabine] + CCCCCCCCCCCC1=C(O)C(=O)C=C(O)C1=O [Embelin] (first compound 0.0004 µM, partner dose 1.2 µM) was run?
A: 97%

Q: Which cell count does the source give for Nc1ccn([C@@H]2O[C@H](CO)[C@@H](O)C2(F)F)c(=O)n1 [gemcitabine] + COC(=O)c1sccc1S(=O)(=O)Nc1ccc(Nc2ccccc2)cc1OC [GSK0660] (first compound 0.0004 µM, partner dose 1 µM) here?
A: 89.4%
